Some of the results follow. These are further read-outs of the screen, such as a control signal, another cell line or another target. No call is given for them.
Biological target: GTPase KRas (Homo sapiens) (UniProt P01116)
Test: Cysteine mutants labelled by reactive fragments (mass read-out) (AID 2202238)
Design: protein at 5 µM with 500 µM competing thiol for 1.5 h
Settings: KRAS G12D cysteine mutants, disulfide tethering, MALDI-TOF labeling, stronger effect = higher value, fragment at 500 µM
[1] = measured here: G60C mutant labeling
[2] = measured here: G75C mutant labeling
[3] = measured here: H94C mutant labeling
[4] = measured here: I36C mutant labeling
[5] = measured here: L120C mutant labeling
[6] = measured here: M67C mutant labeling
[7] = measured here: M72C mutant labeling
[8] = measured here: N26C mutant labeling
[9] = measured here: N86C mutant labeling
[10] = measured here: P121C mutant labeling
[11] = measured here: S122C mutant labeling
[12] = measured here: S136C mutant labeling

UniProt P01116, sequence (P01116 whole entry, looked up, the tested form may be a part): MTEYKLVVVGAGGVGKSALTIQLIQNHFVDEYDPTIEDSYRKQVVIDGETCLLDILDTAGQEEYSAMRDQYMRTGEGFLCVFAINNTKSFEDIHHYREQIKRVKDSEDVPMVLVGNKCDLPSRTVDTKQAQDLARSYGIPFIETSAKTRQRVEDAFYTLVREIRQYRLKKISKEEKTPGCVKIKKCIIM

Structure (SMILES) | percent labeling [1] | percent labeling [2] | percent labeling [3] | percent labeling [4] | percent labeling [5] | percent labeling [6] | percent labeling [7] | percent labeling [8] | percent labeling [9] | percent labeling [10] | percent labeling [11] | percent labeling [12]
O=C(NCCS)c1nc(Br)cs1 | 35.1% | 22.5% | 33.3% | 14.1% | 26.3% | 18.8% | 42.7% | 32.2% | 19.3% | 21% | 18% | 30.1%
Cc1nc(=O)[nH]c(C)c1CCC(=O)NCCS | 20% | 4.9% | 18.3% | 17.3% | 21.1% | 15.2% | 6% | 20.1% | 12.6% | 27.8% | 15.2% | 28.4%
O=C(CCNC(=O)Cc1ccccc1)NCCS | 23.8% | 10% | 32.1% | 31.6% | 42.2% | 35.2% | 25.5% | 32.4% | 23.1% | 35.5% | 31.5% | 50.3%
O=C(CCS)N1CCCCC1c1noc(=O)[nH]1 (centres undefined) | – | 8% | 20.8% | 21.1% | 41.4% | 19.4% | 12.1% | – | 29.3% | 31.3% | 42.9% | 41.1%
Cc1c(C(=O)NCCS)[nH]c(=O)c2ccccc12 | 33.7% | 3.7% | 9.4% | 15.2% | 15.5% | 21.6% | 41.9% | 40.9% | 23.8% | 37.2% | 18.2% | 35.5%
O=C(NCCS)C1CCN(S(=O)(=O)c2ccc(OC(F)(F)F)cc2Cl)CC1 | 13% | 10.6% | 5.3% | 3.2% | 6.5% | 8.6% | 6% | 16.7% | 5.7% | 4.1% | 0% | 9.1%
O=C(NCCS)c1coc(-c2ccc(F)cc2)n1 | 22.3% | 13.4% | 14.8% | 7.1% | 17.3% | 8.1% | 33.3% | 29.5% | 7.4% | 13.2% | 8.9% | 20%
Cc1csc(Nc2ccc(C(=O)NCCS)cc2)n1 | 18.7% | 9.8% | 12.4% | 8.5% | 16.4% | 14.5% | 36.8% | 29.9% | 6% | 11.9% | 9.5% | 15.5%
CC(C)(C)OC(=O)C1CC(O)(C2CCN(C(=O)CCS)CC2)C1 (centres undefined) | – | 10.1% | 29.4% | 24.8% | 31.4% | 35.2% | 23.9% | – | 23.7% | 28.3% | 32.7% | 50.6%
O=C(NCCS)c1nsc2cc(Br)ccc12 | 17.8% | 11.9% | 14.4% | 11% | 11.4% | 10.3% | 43.4% | 25.9% | 9.7% | 12.5% | 6.4% | 11.7%
O=C(NCCS)c1cnn(-c2cccc(Br)c2)c1 | 9.7% | 6.7% | 6.7% | 8.7% | 6% | 6.2% | 32.1% | 23.4% | 8.3% | 8.1% | 4.1% | 6.9%
O=C(NCCS)C1(c2cccs2)CCCCC1 | 46% | 14.3% | 19.2% | 15.1% | 27.2% | 17.5% | 38.9% | 26.5% | 11.8% | 18.6% | 13.4% | 25.9%
CC(C)(C)c1noc2ncc(C(=O)NCCS)cc12 | 27.6% | 18.5% | 24.6% | 17.3% | 21.3% | 17.6% | 32.2% | 29.6% | 16.9% | 18.3% | 15.8% | 38.5%
O=C(CCS)NCCC1CN(c2ncnc3[nH]ncc23)c2ccccc21 (centres undefined) | – | 5.4% | 15.9% | 20.9% | 7.8% | 17% | 21.8% | – | 0% | 9.1% | 4.1% | 35.2%
COc1ccc2[nH]c(C(=O)NCCS)cc2c1OC | 27.3% | 18% | 19.5% | 20.3% | 23% | 17.5% | 39% | 35.1% | 18.7% | 16.5% | 17.4% | 25.3%

From PubChem BioAssay AID2202238 (Ras Initiative Chemistry Research Team, Frederick National …, 2025)
